Measured values from patent publication US12479847B2 (DANA-FARBER CANCER INSTITUTE, INC., priority 2019, dated 2025).

Target: human LRRK2(G2019S) kinase (Homo sapiens, UniProt Q5S007, G2019S)
Experiment: biochemical
Experimental: Assay kits from Promega™ Corporation were used according to instructions and adapted as outlined herein. Test compounds were generally prepared with 1:3 serial dilutions for 12 concentrations (from 50 μM to 0.01 nM) ATP competition experiments. The kinase reaction was performed with kinase reaction buffer (40 mM Tris base pH 7.4, 20 mM MgCl2, 0.5 mM dithiothreitol), 0.1 mg/ml bovine serum albumin, distilled H2O). The reaction mixtures contained Pure ATP solution (10 μM), specific substrate (0.2 μg), and (human LRRK2 kinase (25 ng)) or (human LRRK2(G2019S) kinase (16 ng)), in a total assay volume of 5 μl after the manufacturer's protocol. In brief, the kinase reactions were started by addition of ATP to the kinase reaction mixture. The resulting mixture was incubated for 60 minutes at 25° C., and then stopped by adding 5 μl of ADP-Glo™ reagent. After incubation at room temperature in the dark for 40 minutes, 10 μl of kinase detection reagent was added per well, and the mixture was incubated for 10 minutes. Luminescence was measured using a Synergy™NEO2 plate reader (BioTek®) with an integration time of 1 second per well. Positive and negative controls were performed in 0.5% DMSO in the presence and absence of LRRK2 kinases. Curve fitting and data presentations were performed using GraphPad Prism version 5.0 (GraphPad Software, Inc.). The LRKK2 and LRRK2(G2019S) assay with inventive compounds 1-64 are summarized in the table below (Table 1), wherein: […]

IC50 [nM] | Structure (SMILES)
100 to 1000 | COc1cc(S(=O)(=O)N2CCC(N3CCOCC3)CC2)ccc1Nc1nc(NC2CCC2)c2c(Cl)c[nH]c2n1 [Compound 28, 5-chloro-N4-cyclobutyl-N2-(2-methoxy-4-((4-morpholinopiperidin-1-yl)sulfonyl)phenyl)-7H-pyrrolo[2,3-d]pyrimidine-2,4-diamine]
10 to 100 | COc1cc(S(=O)(=O)N2CCOCC2)ccc1Nc1nc(NC2CCOCC2)c2c(Cl)c[nH]c2n1 [Compound 62, 5-chloro-N2-(2-methoxy-4-(morpholinosulfonyl)phenyl)-N4-(tetrahydro-2H-pyran-4-yl)-7H-pyrrolo[2,3-d]pyrimidine-2,4-diamine]
100 to 1000 | COc1cc(S(=O)(=O)N2CCC(N3CCOCC3)CC2)ccc1Nc1nc(NC2CCCC2)c2c(Cl)c[nH]c2n1 [Compound 56, 5-chloro-N4-cyclopentyl-N2-(2-methoxy-4-((4-morpholinopiperidin-1-yl)sulfonyl)phenyl)-7H-pyrrolo[2,3-d]pyrimidine-2,4-diamine]
< 10 | O=C(c1ccc(Nc2nc(NC3CC3)c3c(Cl)c[nH]c3n2)c2c1OCCO2)N1CCC(N2CCOCC2)CC1 [Compound 3, (8-((5-chloro-4-(cyclopropylamino)-7H-pyrrolo[2,3-d]pyrimidin-2-yl)amino)-2,3-dihydrobenzo[b][1,4]dioxin-5-yl)(4-morpholinopiperidin-1-yl)methanone]
< 10 | COc1cc(P2(=O)CCN(C(C)=O)CC2)ccc1Nc1nc(NC2CCC2)c2c(Cl)c[nH]c2n1 [Compound 92]
10 to 100 | COCCNc1nc(Nc2ccc(S(=O)(=O)N3CCC(N4CCOCC4)CC3)cc2OC)nc2[nH]cc(Cl)c12 [Compound 22, 5-chloro-N2-(2-methoxy-4-((4-morpholinopiperidin-1-yl)sulfonyl)phenyl)-N4-(2-methoxyethyl)-7H-pyrrolo[2,3-d]pyrimidine-2,4-diamine]
< 10 | CNc1nc(Nc2ccc(C(=O)N3CCC(N4CCOCC4)CC3)c3c2OCCO3)nc2[nH]cc(Cl)c12 [Compound 10, (8-((5-chloro-4-(methylamino)-7H-pyrrolo[2,3-d]pyrimidin-2-yl)amino)-2,3-dihydrobenzo[b][1,4]dioxin-5-yl)(4-morpholinopiperidin-1-yl)methanone]
10 to 100 | CCNc1nc(Nc2ccc(S(=O)(=O)N3CCOCC3)cc2OC)nc2[nH]cc(Cl)c12 [Compound 6, 5-chloro-N4-ethyl-N2-(2-methoxy-4-(morpholinosulfonyl)phenyl)-7H-pyrrolo[2,3-d]pyrimidine-2,4-diamine]
10 to 100 | COc1cc(P2(=O)CCN(C3CC3)CC2)ccc1Nc1nc(NC2CCCCC2)c2c(Cl)c[nH]c2n1 [Compound 93, 4-(4-((5-chloro-4-(cyclohexylamino)-7H-pyrrolo[2,3-d]pyrimidin-2-yl)amino)-3-methoxyphenyl)-1-cyclopropyl-1,4-azaphosphinane 4-oxide]
< 10 | CNc1nc(Nc2ccc(C(=O)N3CCC(N4CCOCC4)CC3)c3c2OCC3)nc2[nH]cc(Cl)c12 [Compound 86, (7-((5-chloro-4-(methylamino)-7H-pyrrolo[2,3-d]pyrimidin-2-yl)amino)-2,3-dihydrobenzofuran-4-yl)(4-morpholinopiperidin-1-yl)methanone]
< 10 | COc1cc(P2(=O)CCN(C3CC3)CC2)ccc1Nc1nc(NC2CC2)c2c(Cl)c[nH]c2n1 [Compound 90, 4-(4-((5-chloro-4-(cyclopropylamino)-7H-pyrrolo[2,3-d]pyrimidin-2-yl)amino)-3-methoxyphenyl)-1-cyclopropyl-1,4-azaphosphinane 4-oxide]

Continued, compound first:

Structure (SMILES) | IC50 [nM]
CS(=O)(=O)CCNc1nc(Nc2ccc(C(=O)N3CCOCC3)c3c2OCCO3)nc2[nH]cc(Cl)c12 [Compound 70, (8-((5-chloro-4-((2-(methylsulfonyl)ethyl)amino)-7H-pyrrolo[2,3-d]pyrimidin-2-yl)amino)-2,3-dihydrobenzo[b][1,4]dioxin-5-yl)(morpholino)methanone] | < 10
O=C(c1ccc(Nc2nc(NC3CC3)c3c(Cl)c[nH]c3n2)c2c1OCCO2)N1CCOCC1 [Compound 27, (8-((5-chloro-4-(cyclopropylamino)-7H-pyrrolo[2,3-d]pyrimidin-2-yl)amino)-2,3-dihydrobenzo[b][1,4]dioxin-5-yl)(morpholino)methanone] | < 10
COCCNc1nc(Nc2ccc(C(=O)N3CCC(N4CCOCC4)CC3)c3c2OCCO3)nc2[nH]cc(Cl)c12 [Compound 5, (8-((5-chloro-4-((2-methoxyethyl)amino)-7H-pyrrolo[2,3-d]pyrimidin-2-yl)amino)-2,3-dihydrobenzo[b][1,4]dioxin-5-yl)(4-morpholinopiperidin-1-yl)methanone] | < 10
COCCNc1nc(Nc2ccc(S(C)(=O)=O)cc2OC)nc2[nH]cc(Cl)c12 [Compound 23, 5-chloro-N2-(2-methoxy-4-(methylsulfonyl)phenyl)-N4-(2-methoxyethyl)-7H-pyrrolo[2,3-d]pyrimidine-2,4-diamine] | 10 to 100
CCCCNc1nc(Nc2ccc(S(C)(=O)=O)cc2OC)nc2[nH]cc(Cl)c12 [Compound 73, N4-butyl-5-chloro-N2-(2-methoxy-4-(methylsulfonyl)phenyl)-7H-pyrrolo[2,3-d]pyrimidine-2,4-diamine] | 10 to 100
CNc1nc(Nc2ccc(C(=O)N3CCOCC3)c3c2OCCO3)nc2[nH]cc(Cl)c12 [Compound 14, (8-((5-chloro-4-(methylamino)-7H-pyrrolo[2,3-d]pyrimidin-2-yl)amino)-2,3-dihydrobenzo[b][1,4]dioxin-5-yl)(morpholino)methanone] | < 10
CC[C@@H](C)Nc1nc(Nc2ccc(S(C)(=O)=O)cc2OC)nc2[nH]cc(Cl)c12 [Compound 49, (R)—N4-(sec-butyl)-5-chloro-N2-(2-methoxy-4-(methylsulfonyl)phenyl)-7H-pyrrolo[2,3-d]pyrimidine-2,4-diamine] | 100 to 1000
CC[C@@H](C)Nc1nc(Nc2ccc(C(=O)N3CCOCC3)c3c2OCCO3)nc2[nH]cc(Cl)c12 [Compound 50, (R)-(8-((4-(sec-butylamino)-5-chloro-7H-pyrrolo[2,3-d]pyrimidin-2-yl)amino)-2,3-dihydrobenzo[b][1,4]dioxin-5-yl)(morpholino)methanone] | 10 to 100
CCNc1nc(Nc2ccc(C(=O)N3CCOCC3)c3c2OCC3)nc2[nH]cc(Cl)c12 [Compound 101, (7-((5-chloro-4-(ethylamino)-7H-pyrrolo[2,3-d]pyrimidin-2-yl)amino)-2,3-dihydrobenzofuran-4-yl)(morpholino)methanone] | < 10
CCNc1nc(Nc2ccc(P3(=O)CCN(C(C)=O)CC3)cc2OC)nc2[nH]cc(Cl)c12 [Compound 98] | < 10
CCNc1nc(Nc2ccc(P3(=O)CCN(C4CC4)CC3)cc2OC)nc2[nH]cc(Cl)c12 [Compound 84, 4-(4-((5-chloro-4-(ethylamino)-7H-pyrrolo[2,3-d]pyrimidin-2-yl)amino)-3-methoxyphenyl)-1-cyclopropyl-1,4-azaphosphinane 4-oxide] | 10 to 100
CNc1nc(Nc2ccc(P3(=O)CCN(C(C)=O)CC3)cc2OC)nc2[nH]cc(Cl)c12 [Compound 82, 1-(4-(4-((5-chloro-4-(methylamino)-7H-pyrrolo[2,3-d]pyrimidin-2-yl)amino)-3-methoxyphenyl)-4-oxido-1,4-azaphosphinan-1-yl)ethan-1-one] | < 10
